The results in this text go back to PMC4336329 (PLoS ONE, 2015).

Each structure is given as a SMILES string. The whole screen tested about 310,000 compounds, of which about 14,000 (4.5%) showed an effect of 50% or more. The effect is printed as a negative number. The list shows a part of the results.
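Note: peak tail current of the secondary pulse compared with the same well before compound.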

In the assay the target is human ether-à-go-go-related gene (hERG) potassium channel (human, UniProt Q12809). The assay is described as follows: primary screen, population patch clamp on CHO cells stably expressing hERG.
Chain of human ether-à-go-go-related gene (hERG) potassium channel (Q12809 whole entry, looked up): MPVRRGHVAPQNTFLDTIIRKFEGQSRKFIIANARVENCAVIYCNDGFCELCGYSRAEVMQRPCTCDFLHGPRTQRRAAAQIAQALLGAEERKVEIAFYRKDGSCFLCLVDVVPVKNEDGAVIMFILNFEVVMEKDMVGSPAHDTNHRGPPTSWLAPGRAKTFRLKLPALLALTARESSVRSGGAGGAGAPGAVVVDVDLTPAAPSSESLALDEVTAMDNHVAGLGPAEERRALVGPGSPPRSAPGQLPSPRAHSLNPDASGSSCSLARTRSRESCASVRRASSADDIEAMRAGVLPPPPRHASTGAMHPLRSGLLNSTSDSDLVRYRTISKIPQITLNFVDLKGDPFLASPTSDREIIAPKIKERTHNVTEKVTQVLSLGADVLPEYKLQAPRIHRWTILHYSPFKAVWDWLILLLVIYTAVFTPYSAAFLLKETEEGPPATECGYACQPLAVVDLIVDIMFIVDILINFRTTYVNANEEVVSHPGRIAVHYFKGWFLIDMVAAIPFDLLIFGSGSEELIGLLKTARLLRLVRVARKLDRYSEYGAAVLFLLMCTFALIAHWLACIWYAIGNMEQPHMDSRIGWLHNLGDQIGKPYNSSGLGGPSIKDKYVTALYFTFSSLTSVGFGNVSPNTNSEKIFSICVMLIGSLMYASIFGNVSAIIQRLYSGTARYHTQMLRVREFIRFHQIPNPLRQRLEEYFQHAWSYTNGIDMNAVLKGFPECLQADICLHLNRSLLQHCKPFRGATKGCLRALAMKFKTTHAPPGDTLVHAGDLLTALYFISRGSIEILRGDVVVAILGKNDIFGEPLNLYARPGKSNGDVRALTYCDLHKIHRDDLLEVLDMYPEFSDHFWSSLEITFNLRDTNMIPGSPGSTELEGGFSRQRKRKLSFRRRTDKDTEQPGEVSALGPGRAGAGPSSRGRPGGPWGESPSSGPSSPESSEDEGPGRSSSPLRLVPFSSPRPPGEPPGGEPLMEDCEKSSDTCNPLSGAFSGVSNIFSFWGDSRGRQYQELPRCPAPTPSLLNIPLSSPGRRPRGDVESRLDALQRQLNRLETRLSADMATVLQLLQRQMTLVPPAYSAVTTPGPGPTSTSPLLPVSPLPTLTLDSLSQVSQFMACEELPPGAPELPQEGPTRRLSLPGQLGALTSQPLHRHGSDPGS
For the molecule `Cc1c(F)cccc1NS(=O)(=O)c1ccc(OCCNS(C)(=O)=O)cc1`, the “hERG current change (%, negative = inhibition) at 10uM” value was 12.1%.

Regarding `COc1ccc(C(=O)Nc2ccnn2C2CCN(CCC(C)c3ccc(C)o3)CC2)cc1` (centres unmarked), the “hERG current change (%, negative = inhibition) at 10uM” value is recorded as -67%.

With `COc1ccccc1NC(=O)C(=O)NNS(=O)(=O)c1ccc2ccccc2c1`, the “hERG current change (%, negative = inhibition) at 10uM” value is 6.71%.

Turning to `COc1ccc(OC)c(C2/C(=C(/O)c3ccc(C)cc3)C(=O)C(=O)N2Cc2ccco2)c1` (centres unmarked), the “hERG current change (%, negative = inhibition) at 10uM” value is on record as -7.22%.

`CC1=NN(C(=O)c2ccc(Cn3ccc([N+](=O)[O-])n3)cc2)C(O)(C(F)(F)F)C1` (centres unmarked): the “hERG current change (%, negative = inhibition) at 10uM” value is reported as -8.73%.

As for `Cn1c(O)c(/C=N/NC(=O)c2ccncc2)c(=O)[nH]c1=S`, the “hERG current change (%, negative = inhibition) at 10uM” value is listed as 14%.

For the molecule `CCCCC(=O)Nc1ncc(S(=O)(=O)c2ccc([N+](=O)[O-])cc2)s1`, the “hERG current change (%, negative = inhibition) at 10uM” value came out at 17.9%.

Turning to `O=C(COC(=O)COc1ccc(Cl)cc1)Nc1ccc2c(c1)OCCO2`, the “hERG current change (%, negative = inhibition) at 10uM” value is reported as -1.84%.

On to `COC(=O)C(NS(=O)(=O)c1ccc(F)cc1)c1ccccc1` (centres unmarked), for which the “hERG current change (%, negative = inhibition) at 10uM” value is reported as 1.53%.

On to `CCOC(=O)c1[nH]cnc1C(=O)Nc1ccc(Cl)cc1`, for which the “hERG current change (%, negative = inhibition) at 10uM” value is listed as 5.75%.

`N#Cc1c(-c2ccc(Cl)cc2)c2c([nH]c1=O)-c1ccccc1OC2`: the “hERG current change (%, negative = inhibition) at 10uM” value was found to be 19.6%.

On to `CN(NC(=O)c1ccccc1F)c1ccc([N+](=O)[O-])cn1`, for which the “hERG current change (%, negative = inhibition) at 10uM” value is given as -11.2%.

Turning to `COC(=O)c1c(C(=O)OC)c(-c2ccc(C)cc2)n2c1CCC2`, the “hERG current change (%, negative = inhibition) at 10uM” value is -0.278%.

Regarding `N#Cc1c(N)nc(SCC(=O)NC2CCCCC2)c(C#N)c1-c1ccc(Cl)cc1`, the “hERG current change (%, negative = inhibition) at 10uM” value was found to be 0.478%.

With `Cc1csc(=O)n1CC(=O)OCc1nnc(-c2ccccc2)o1`, the “hERG current change (%, negative = inhibition) at 10uM” value worked out at 0.132%.

As for `COc1ccccc1NC(=S)N1CCN(c2ccccc2F)CC1`, the “hERG current change (%, negative = inhibition) at 10uM” value amounted to 2.05%.

Take `COc1ccccc1C(CNC(=O)c1ccc(NS(=O)(=O)c2ccc(F)c(C)c2)cc1)N1CCCC1` (centres unmarked): the “hERG current change (%, negative = inhibition) at 10uM” value is -58.1%.

As for `CCc1ccc(S(=O)(=O)Nc2ccc(Br)cn2)cc1`, the “hERG current change (%, negative = inhibition) at 10uM” value is reported as -0.907%.

As for `Cc1noc(C)c1COc1ccc(C(=O)NCCc2ccc(S(N)(=O)=O)cc2)cc1`, the “hERG current change (%, negative = inhibition) at 10uM” value is -9.58%.

With `COc1cc2c(cc1OC)-c1nnc(-c3cccs3)n1C(C)(C)C2`, the “hERG current change (%, negative = inhibition) at 10uM” value is -38.3%.

With `Fc1ccc2c(c1)C(c1ccncc1)=NNC(c1ccc(Br)cc1)=N2`, the “hERG current change (%, negative = inhibition) at 10uM” value was -1.97%.

Regarding `COc1ccc(CNS(=O)(=O)c2c(C)[nH]c(C)c2C(=O)N2CCCC2)cc1`, the “hERG current change (%, negative = inhibition) at 10uM” value is 17.6%.

As to `CC(C)CN(C(=O)COC(=O)c1c2c(nc3ccccc13)CCC2)c1c(N)n(Cc2ccccc2)c(=O)[nH]c1=O`, the “hERG current change (%, negative = inhibition) at 10uM” value is 4.06%.
